From the supplement of paper PMC4967469
By IC50 is meant the dose at which the fit gives 50% viability; a limit (>, <) means that the fit lies beyond the doses tested. For AUC the same curve is integrated over the 256-fold range of doses and scaled to a fraction; it is 1 without any effect and falls as sensitivity rises. For some assays here: The top dose, if marked as inferred, is not printed in the source and was worked back from the curve model. For some assays here: An entry number marks a drug with two screens in the source, which often give different values.

Experiments:
Assay in all cases: Viability of human cancer cell lines after 72 h of drug (GDSC screen)
QL-X-138 = compound: C=CC(=O)Nc1cc(-n2c(=O)ccc3cnc4ccc(-c5cn[nH]c5)cc4c32)ccc1C [QL-X-138]; conditions: top dose 10.24 µM; top dose inferred
Description: (§1)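 Human cancer cell lines in 384-well plates, medium with 10% serum, drug for 72 h over a 256-fold dose range (nine 2-fold or five 4-fold steps up to the top dose). Adherent lines were fixed and stained with the nucleic acid dye Syto60, suspension lines read with resazurin; signal relative to control wells, capped at 0 and 100%. One two-parameter sigmoid per drug and line, fitted in a mixed model over all curves with the slope shared within a line.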

Cytarabine = compound: Nc1ccn([C@@H]2O[C@H](CO)[C@@H](O)[C@@H]2O)c(=O)n1 [Cytarabine]; conditions: top dose 2 µM
Description: as §1

GSK269962A = compound: CCn1c(-c2nonc2N)nc2cnc(Oc3cccc(NC(=O)c4ccc(OCCN5CCOCC5)cc4)c3)cc21 [GSK269962A]; conditions: top dose 5 µM; screen: GDSC drug entry 1192; top dose inferred
Description: as §1

ABT-869 = compound: Cc1ccc(F)c(NC(=O)Nc2ccc(-c3cccc4[nH]nc(N)c34)cc2)c1 [ABT-869]; conditions: top dose 1.024 µM; top dose inferred
Description: as §1

MPS-1-IN-1 = compound: COc1cc(N2CCC(O)CC2)ccc1Nc1cc(Nc2ccccc2S(=O)(=O)C(C)C)c2cc[nH]c2n1 [MPS-1-IN-1]; conditions: top dose 20 µM; top dose inferred
Description: as §1

ABT-888 = compound: C[C@]1(c2nc3c(C(N)=O)cccc3[nH]2)CCCN1 [ABT-888]; conditions: top dose 5 µM; top dose inferred
Description: as §1

KU-55933 = compound: O=c1cc(-c2cccc3c2Sc2ccccc2S3)oc(N2CCOCC2)c1 [KU-55933]; conditions: top dose 10 µM
Description: as §1

Thapsigargin = compound: C/C=C(/C)C(=O)O[C@H]1C(C)=C2[C@H]([C@@H]1OC(=O)CCCCCCC)[C@@](C)(OC(C)=O)C[C@H](OC(=O)CCC)[C@@]1(O)[C@H]2OC(=O)[C@@]1(C)O [Thapsigargin]; conditions: top dose 0.512 µM; top dose inferred
Description: as §1

Zibotentan = compound: COc1nc(C)cnc1NS(=O)(=O)c1cccnc1-c1ccc(-c2nnco2)cc1 [Zibotentan]; conditions: top dose 20 µM; top dose inferred
Description: as §1

CP466722 = compound: COc1cc2ncnc(-n3nc(-c4ccccn4)nc3N)c2cc1OC [CP466722]; conditions: top dose 16 µM; top dose inferred
Description: as §1

(5Z)-7-Oxozeaenol = compound: COc1cc(O)c2c(c1)/C=C/C[C@H](O)[C@H](O)C(=O)/C=C\C[C@H](C)OC2=O [(5Z)-7-Oxozeaenol]; conditions: top dose 10 µM; top dose inferred
Description: as §1

CHIR-99021 = compound: Cc1cnc(-c2cnc(NCCNc3ccc(C#N)cn3)nc2-c2ccc(Cl)cc2Cl)[nH]1 [CHIR-99021]
Description: as §1

[1] = top dose 2.56 µM, screen: GDSC drug entry 154
[2] = top dose 10 µM, screen: GDSC drug entry 1241, top dose inferred

Cell Line	AUC (QL-X-138)	IC50 (QL-X-138) [µM]	AUC (Cytarabine)	IC50 (Cytarabine) [µM]	AUC (GSK269962A)	IC50 (GSK269962A) [µM]	AUC (ABT-869)	IC50 (ABT-869) [µM]	AUC (MPS-1-IN-1)	IC50 (MPS-1-IN-1) [µM]	AUC (ABT-888)	IC50 (ABT-888) [µM]	AUC (KU-55933)	IC50 (KU-55933) [µM]	AUC (Thapsigargin)	IC50 (Thapsigargin) [µM]	AUC (Zibotentan)	IC50 (Zibotentan) [µM]	AUC (CP466722)	IC50 (CP466722) [µM]	AUC ((5Z)-7-Oxozeaenol)	IC50 ((5Z)-7-Oxozeaenol) [µM]	AUC (CHIR-99021; [1])	IC50 (CHIR-99021; [1]) [µM]	AUC (CHIR-99021; [2])	IC50 (CHIR-99021; [2]) [µM]
HT55 (large intestine, adherent)	0.99	> 10.2	0.826	1.21	0.979	> 5	0.99	> 1.02	0.973	> 20	0.99	> 5	0.99	> 10	0.854	0.4	0.99	> 20	0.99	> 16	0.645	1.58	0.99	> 2.56	0.989	> 10
HT-3 (cervix, adherent)	0.777	4.17	0.752	0.671	0.976	> 5	0.977	> 1.02	0.93	> 20	0.987	> 5	0.963	> 10	0.432	0.0208	0.987	> 20	0.898	> 16	0.772	3.93	0.918	> 2.56	0.946	> 10
HT-115 (large intestine, adherent)	0.988	> 10.2	0.856	1.39	0.794	2.08	0.991	> 1.02	0.971	> 20	0.991	> 5	0.987	> 10	0.879	0.444	0.985	> 20	0.945	> 16	0.487	0.579	0.991	> 2.56	0.949	> 10
HT-1376 (bladder, adherent)	0.984	> 10.2	0.788	1.05	0.92	> 5	0.983	> 1.02	0.985	> 20	0.984	> 5	0.919	> 10	0.327	0.00962	0.985	> 20	0.985	> 16	0.754	3.91	0.968	> 2.56	0.978	> 10
Hs633T (fibrosarcoma, adherent)	0.596	1.11	0.428	0.0827	0.309	0.102	0.992	> 1.02	0.867	12.8	0.981	> 5	0.917	> 10	0.162	0.00393	0.992	> 20	0.813	6.73	0.217	0.114	0.94	> 2.56	0.904	9.04
Hs683 (glioma, adherent)	0.815	5.69	0.903	> 2	0.979	> 5	0.984	> 1.02	0.988	> 20	0.948	> 5	0.932	> 10	0.179	0.0034	0.985	> 20	0.84	11.2	0.797	4.76	0.968	> 2.56	0.895	> 10
Hs766T (pancreas, adherent)	0.947	> 10.2	0.924	> 2	0.977	> 5	0.981	> 1.02	0.983	> 20	0.957	> 5	0.911	> 10	0.2	0.00295	0.981	> 20	0.936	> 16	0.764	4.77	0.932	> 2.56	0.933	> 10
Hs939-T (melanoma, adherent)	0.952	> 10.2	0.718	0.553	0.94	> 5	0.986	> 1.02	0.938	> 20	0.977	> 5	0.964	> 10	0.496	0.0311	0.985	> 20	0.986	> 16	0.377	0.278	0.964	> 2.56	0.912	> 10
HuCCT1 (biliary tract, adherent)	0.689	2.33	0.876	> 2	0.965	> 5	0.946	> 1.02	0.929	> 20	0.967	> 5	0.949	> 10	0.182	0.00307	0.976	> 20	0.736	5.14	0.465	0.498	0.96	> 2.56	0.895	> 10
HuH-7 (liver, adherent)	0.901	> 10.2	0.935	> 2	0.902	> 5	0.986	> 1.02	0.977	> 20	0.987	> 5	0.914	> 10	0.129	0.00213	0.983	> 20	0.91	> 16	0.79	4.44	0.987	> 2.56	0.939	> 10
